The other results are listed elsewhere or left out.

For 153 variants, enrichment ratio results are on record in a collection of fitness landscapes (doi:10.1126/science.1257360).

The chains are these.
B1: PhoQ; a variant is named by its letters at X, in order, P23837 (parent)
chain: MKKLLRLFFPLSLRVRFLLATAAVVLVLSLAYGMVALIGYSVSFDKTTFRLLRGESNLFYTLAKWENNKLHVELPENIDKQSPTMTLIYDENGQLLWAQRDVPWLMKMIQPDWLKSNGFHEIEADVNDTSLLLSGDHSIQQQLQEVREDDDDAEMTHSVAVNVYPATSRMPKLTIVVVDTIPVELKSSYMVWSWFIYVLSANLLLVIPLLWVAAWWSLRPIEALAKEVRELEEHNRELLNPATTRELTSLVRNLNRLLKSERERYDKYRTTLTDLTHSLKTPLXXLQXXLRSLRSEKMSVSDAEPVMLEQISRISQQIGYYLHRASMRGGTLLSRELHPVAPLLDNLTSALNKVYQRKGVNISLDISPEISFVGEQNDFVEVMGNVLDNACKYCLEFVEISARQTDEHLYIVVEDDGPGIPLSKREVIFDRGQRVDTLRPGQGVGLAVAREITEQYEGKIVAGESMLGGARMEVIFGRQHSAPKDE

The variants in the assay derive from B1. Put plainly: enrichment ratio after two sorts for PhoP signalling (ratio (wild type AVST 3.29)); higher = more functional. Conditions: with PhoP (E. coli).
As for MSES, the enrichment ratio is at most 0.25. The value for EGEL was at most 0.25; that for FHSL was at most 0.25. The value for YFFN was at most 0.25; that for RSRH was at most 0.25. The value for KYDV was at most 0.25. For the variant EYRG, the enrichment ratio is at most 0.25.

As to FLHA, the enrichment ratio was at most 0.25. The result for NTPV reads at most 0.25.

Consider GGHI, for which the enrichment ratio is at most 0.25.

In the case of QHIR, the enrichment ratio was at most 0.25. The result for YMNN reads at most 0.25; that for PDTC, at most 0.25; that for PTAK, at most 0.25. The value for VLER was at most 0.25; that for QFIP was at most 0.25; that for NDFA was at most 0.25. The result for IIML reads at most 0.25; that for VADR, at most 0.25. With KLDH, the enrichment ratio is at most 0.25. The value for HGGD was at most 0.25; that for WDMC was at most 0.25; that for YSGW was at most 0.25. The result for PMAG reads at most 0.25; that for VMVW, at most 0.25. The value for LRTV was at most 0.25. For the variant WYIL, the enrichment ratio is at most 0.25. The value for HNIE was at most 0.25; that for GKPN was at most 0.25; that for RVQH was at most 0.25. As to MIMR, the enrichment ratio is at most 0.25. Turning to RLPW, the enrichment ratio is at most 0.25. The result for RVEE reads at most 0.25; that for FWLW, at most 0.25. The value for PTFV was at most 0.25. The value for FLWC was at most 0.25; that for NKKF was at most 0.25; that for YGLV was 13.5. Turning to HYSK, the enrichment ratio was at most 0.25. Turning to YGEI, the enrichment ratio is at most 0.25.

Consider MPPF, for which the enrichment ratio is at most 0.25. The result for PFVL reads at most 0.25; that for LIFT, at most 0.25. For the variant HRIR, the enrichment ratio was at most 0.25.

Take KVRT: the enrichment ratio was at most 0.25.

With ECPI, the enrichment ratio is at most 0.25. The value for IANS was at most 0.25. The result for MFHH reads at most 0.25; that for DERC, at most 0.25; that for IQPQ, at most 0.25.

Consider GNMR, for which the enrichment ratio is at most 0.25. The value for IKLH was at most 0.25. The result for TGST reads 15.2; that for FWPA, at most 0.25; that for KNIC, at most 0.25. The result for DPAF reads at most 0.25; that for PRGN, at most 0.25; that for YLFA, at most 0.25. As to NMER, the enrichment ratio was at most 0.25. QIGC: the enrichment ratio worked out at 3.56. The value for TLMW was at most 0.25; that for WTLF was at most 0.25; that for SYLH was 0.355. The result for MSID reads at most 0.25; that for EAAT, at most 0.25; that for PGSK, at most 0.25. Regarding HQVT, the enrichment ratio is at most 0.25. The value for SPIA was at most 0.25. Consider RRRY, for which the enrichment ratio was at most 0.25. The result for LPPY reads at most 0.25; that for GKRG, at most 0.25. The value for SIFM was at most 0.25; that for ANQV was 8.97. Consider TSCR, for which the enrichment ratio turned out to be 2.04. As to HQWM, the enrichment ratio was at most 0.25.

Consider RAIF, for which the enrichment ratio was at most 0.25.

Regarding INAR, the enrichment ratio was at most 0.25. Turning to ETWY, the enrichment ratio was at most 0.25.

As for FCPC, the enrichment ratio is at most 0.25. The value for NIMW was at most 0.25. The value for KMVE was at most 0.25; that for FRCT was at most 0.25; that for DKML was at most 0.25. The result for YRRN reads at most 0.25; that for HYYY, at most 0.25; that for LRYE, at most 0.25. Turning to EAQS, the enrichment ratio is at most 0.25. The result for NQMW reads at most 0.25; that for NVAM, at most 0.25; that for LTYW, at most 0.25. The result for YVQF reads 0.282. The value for FPQT was at most 0.25.

In the case of IEMM, the enrichment ratio was at most 0.25.

Consider YYSR, for which the enrichment ratio is at most 0.25. Turning to SGPY, the enrichment ratio is at most 0.25. For QADM, the enrichment ratio was at most 0.25. The result for LQWQ reads at most 0.25; that for WCIW, at most 0.25. The result for NTTQ reads at most 0.25; that for LIMK, at most 0.25. The result for GQPF reads at most 0.25; that for HRTY, at most 0.25. For the variant VQCC, the enrichment ratio was at most 0.25. The result for GWRP reads at most 0.25; that for TTRD, at most 0.25. The value for IMYS was at most 0.25. The value for LCCE was at most 0.25. For IHRK, the enrichment ratio was at most 0.25. The value for DLYL was at most 0.25; that for YEHK was at most 0.25. The value for TVMD was at most 0.25; that for LLKK was at most 0.25; that for VYNV was at most 0.25. As to AGMA, the enrichment ratio stood at 5.7. The result for IGFY reads at most 0.25; that for AHKF, at most 0.25. The value for VNWI was at most 0.25; that for MDNY was at most 0.25; that for LVSR was at most 0.25.

For IHVG, the enrichment ratio was at most 0.25. For the variant AQPI, the enrichment ratio is at most 0.25. The value for KQGV was at most 0.25. The result for FHFT reads at most 0.25.

As for WCTR, the enrichment ratio is at most 0.25. As for IHNH, the enrichment ratio was at most 0.25.

On to LTKT, for which the enrichment ratio is at most 0.25. Regarding HIPQ, the enrichment ratio is at most 0.25.

Consider GVCH, for which the enrichment ratio worked out at 6.89. The result for QVVR reads at most 0.25. The value for IDNH was at most 0.25; that for QTSK was at most 0.25; that for FRKQ was at most 0.25.

On to PEID, for which the enrichment ratio was at most 0.25. As for VAQN, the enrichment ratio is at most 0.25.

Consider HDAD, for which the enrichment ratio was at most 0.25. The result for FAWN reads at most 0.25; that for YKYY, at most 0.25. Take TSDV: the enrichment ratio was found to be 5.89.

With LLGH, the enrichment ratio is at most 0.25. The value for GYIY was at most 0.25. The result for AKSG reads 5.13.

For the variant SHVF, the enrichment ratio is 1.7. Consider QFIE, for which the enrichment ratio is at most 0.25.

For FYDR, the enrichment ratio is at most 0.25. On to PKCQ, for which the enrichment ratio was at most 0.25. The value for YRVK was at most 0.25; that for NATM was at most 0.25; that for WHYI was at most 0.25. For AWNR, the enrichment ratio was at most 0.25. The result for FCVC reads 0.972; that for TFDS, at most 0.25. The result for YCKQ reads at most 0.25; that for GRTQ, at most 0.25.
